The list shows a part of the results. The list includes weakly bound sequences.
Biological target: MaxL homodimer (UniProt P61244)
Experiment: universal protein-binding microarray (PBM)
Conditions: PBS-based mixture, 10 nM His-tagged protein dimer, 2% milk, 200 ng/uL BSA, 50 ng/uL salmon testes DNA, 0.02% TX-100; detection with Alexa 488 anti-His …; high values mean tight binding; most listed sequences are background and not binding sites; double strand, one strand shown

Chain of UniProt P61244 (P61244 whole entry): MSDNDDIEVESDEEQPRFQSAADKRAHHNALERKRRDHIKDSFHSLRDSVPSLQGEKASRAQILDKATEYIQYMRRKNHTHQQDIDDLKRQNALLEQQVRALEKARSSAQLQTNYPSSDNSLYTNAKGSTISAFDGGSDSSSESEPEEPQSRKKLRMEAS

| Sequence | binding signal (normalized occupancy) |
| --- | --- |
| ATCAGCAA | 0.0728 |
| ACTGTGAT | 0.0734 |
| AGACGCAT | 0.0847 |
| ACACATCT | 0.0851 |
| GGAGAATA | 0.0811 |
| ATATCGTA | 0.0842 |
| AATAAGAC | 0.0768 |
| ACGATAGC | 0.0748 |
| GCTAATCA | 0.0777 |
| TATTTTCA | 0.0746 |
| ATGTGCGG | 0.104 |
| CCATAACC | 0.0807 |
| GTAGTGAA | 0.082 |
| ACTGATCA | 0.0812 |
| AATACGAC | 0.076 |
| AACGCCGT | 0.0694 |
| AGAATGAG | 0.0802 |
| ACAGTGTG | 0.0848 |
| GCAATTAC | 0.0727 |
| AAACTTTC | 0.0713 |
| ACACATAA | 0.082 |
| CATCATGC | 0.0995 |
| GACGATGA | 0.0766 |
| CCTTAGGA | 0.0723 |
| CACCCGAA | 0.0761 |

| Sequence | binding signal (normalized occupancy) |
| --- | --- |
| GCGGGGAC | 0.0716 |
| CGTGAGCC | 0.0922 |
| AATCGAGG | 0.0718 |
| AAGTTTCT | 0.0797 |
| AGCCGTGA | 0.0713 |
| AGTTCGTC | 0.069 |
| CACAAGCG | 0.081 |
| AAAAACCC | 0.0707 |
| CAACCGCG | 0.0748 |
| CTACCATC | 0.0742 |
| GAGGCTTA | 0.0759 |
| CGCGAGGA | 0.0811 |
| AACTCACT | 0.0726 |
| CAAGCGGG | 0.0669 |
| ATACTTCC | 0.0774 |
| AGATACTA | 0.0732 |
| ACGTGGAT | 0.104 |
| GTAGAAGA | 0.0701 |
| CTGGCCTC | 0.0672 |
| AACGAGTG | 0.0753 |
| ATATCCCA | 0.0855 |
| GATTGAAC | 0.0737 |
| AGCCGGAA | 0.0669 |
| CATTCCCA | 0.0803 |
| CGCAAAAG | 0.0662 |

| Sequence | binding signal (normalized occupancy) |
| --- | --- |
| CGCTTTGC | 0.0674 |
| AACATTCT | 0.0752 |
| TACCTCAA | 0.0732 |
| CGCAAGAG | 0.0757 |
| GCGACAGA | 0.0794 |
| ATTCGTAA | 0.074 |
| ACCTAGGT | 0.0676 |
| ACTGTGCC | 0.0693 |
| ATGTGCAG | 0.0856 |
| AGGTTCCA | 0.0738 |
| ACGAGCAG | 0.0759 |
| CGGCAAAG | 0.0696 |
| GCACGCCC | 0.0848 |
| ACGAGCGA | 0.0744 |
| TAAACGTA | 0.0752 |
| GACGTAAC | 0.0726 |
| ATGACTCC | 0.0807 |
| ATGCAAGC | 0.075 |
| ATCTTATC | 0.0789 |
| GCAGTGAC | 0.0743 |
| ACAAAAAC | 0.0672 |
| CGCCTGTA | 0.0773 |
| GTTTCCCA | 0.0718 |
| ACTTAAAG | 0.0762 |
| CGGTAGAG | 0.0715 |

| Sequence | binding signal (normalized occupancy) |
| --- | --- |
| AGCCGCCC | 0.0683 |
| AGGCTAGG | 0.0773 |
| TCGCATAA | 0.08 |
| ATCCGCGC | 0.0769 |
| GCTGGTTA | 0.0729 |
| AAACAACG | 0.079 |
| GACCTAAC | 0.0788 |
| GCACAAAA | 0.0706 |
| CCCTGGCC | 0.0682 |
| GATAAGCA | 0.0793 |
| ATGTAAGA | 0.0886 |
| GAAACCCA | 0.0749 |
| CCGGCTAC | 0.0657 |
| ACGTAATA | 0.0796 |
| AATCTATA | 0.0881 |
| CATGTGCG | 0.181 |
| GATTTCCC | 0.0728 |
| CTACCCCC | 0.0847 |
| ATGACTGA | 0.0749 |
| CGGCTAAG | 0.0646 |
| ACTGAGAC | 0.0684 |
| CAGTGAGC | 0.0717 |
| ACTAGAAA | 0.0746 |
| CTTCTAGC | 0.0719 |
| GTCGAGAC | 0.0712 |

| Sequence | binding signal (normalized occupancy) |
| --- | --- |
| GAAGTTAC | 0.0721 |
| AGAGACGG | 0.0689 |
| CAGTCTAA | 0.0768 |
| AAAGAACA | 0.0707 |
| AGCCACAA | 0.0748 |
| AAAATTAA | 0.0694 |
| CAGTGAGG | 0.0748 |
| CCAAAAGA | 0.0742 |
| CGAGAGAA | 0.0734 |
| AAACTGAT | 0.0753 |
| ACACTTGA | 0.08 |
| AGGCCACC | 0.0752 |
| ACAAGTAT | 0.0781 |
| CAATATCG | 0.0763 |
| ACCACCCG | 0.0805 |
| CCATGCCC | 0.0935 |
| CCCTGGCA | 0.0717 |
| CGATGGGA | 0.0717 |
| AGGACTAG | 0.0726 |
| AACTCAAC | 0.0713 |
| ACGTACGA | 0.0805 |
| CTGTGTGC | 0.0783 |
| GGAGGAAA | 0.0732 |
| TGACGCAA | 0.0743 |
| CCCCTCTC | 0.0747 |

| Sequence | binding signal (normalized occupancy) |
| --- | --- |
| CGGAAGTC | 0.0689 |
| CGATAAGA | 0.0715 |
| GATTAGTA | 0.075 |
| AGAGTCCG | 0.0682 |
| CCTGTGGA | 0.0734 |
| AGCTGGTG | 0.0712 |
| AACCGATA | 0.0737 |
| AAGATACC | 0.0767 |
| AGCTTAGG | 0.0751 |
| CGTTTTTA | 0.0742 |
| GGGGGCAA | 0.0709 |
| CGGCCACC | 0.0706 |
| GGTTCTCA | 0.076 |
| CCTCAAAC | 0.0703 |
| CTGACTTA | 0.0696 |
| ACACCGGG | 0.0778 |
| AGGTGGGG | 0.0822 |
| GCTTGCCC | 0.0712 |
| TGTCAAAA | 0.0758 |
| AAGCAACA | 0.0803 |
| ACAAAGGA | 0.0755 |
| ATCAATGG | 0.0774 |
| ACACATAG | 0.0857 |
| AGACAGGA | 0.0719 |
| ATTCTCAA | 0.0804 |

| Sequence | binding signal (normalized occupancy) |
| --- | --- |
| AGCTGGGC | 0.0673 |
| CTAGGCCA | 0.0743 |
| AGATGCTC | 0.0716 |
| CCGTTGAG | 0.0702 |
| ACTGTCGG | 0.0685 |
| AATAAATG | 0.0853 |
| CGTGAGAC | 0.0852 |
| TCAGTTCA | 0.0744 |
| GGAGGTCA | 0.0759 |
| CAATCCTC | 0.0774 |
| CTCAAGCC | 0.0733 |
| AGAAGAAA | 0.068 |
| AGTTTCGG | 0.0703 |
| ACCATAAG | 0.0853 |
| CTGTGCAA | 0.0754 |
| GGAGCACC | 0.0769 |
| CCAAGCAA | 0.0719 |
| AAGATACA | 0.0801 |
| CATTTTGA | 0.0815 |
| AGCAGTGA | 0.0674 |
| CAGTCTTA | 0.0706 |
| GATGAGGC | 0.0786 |
